Data: the supplement of paper PMC10126150
Values marked as one replicate rest on one cluster of the flow cell; about a third of the high ones do not repeat.

What follows are sequences tested on ATP (assay: switch fluorescence ratio, 500 uM ATP over buffer (Cy3 cluster intensity, sum of 5 cycles each) (fold (ratio)); higher = stronger signal-on switching upon ATP binding; sequences stand for … in TCGTCGGCAGCGTCAGATGTGTATAAGAGACAGTTTTTTTTTTTTTTTTTTTTTTTTT…TC). Conditions: aptamer strand: ATP DNA aptamer (quencher-CACCTGGGGGAGTATTGCGGAGGAAGG + anchor), 100 nM annealed; ATP concentration: 500 uM; one replicate.
How it was run: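 Between each of five buffer/ATP cycles, the flow-cell was stripped with NaOH and re-annealed. Each cycle imaged Cy3-labelled switching-strand clusters, annealed to 100 nM quencher-labelled ATP aptamer on a modified Illumina MiSeq flow-cell, first in selection buffer and then after 15 min with 500 uM ATP at 22 °C. The fluorescence ratio is summed target-cycle over summed buffer-cycle Cy3 intensity per cluster, averaged per switch-domain sequence, with clusters outside 100-1000 RFU excluded.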
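Further: ATP exposure 15 min at 22 °C before imaging.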

Sequence | switch fluorescence ratio
AGATGATGGT | 0.989
AGATGCAGCG | 0.851
AGATGCATCC | 1.01
AGATGCGGCC | 1
AGATGCGTCT | 0.89
AGATGCTAAG | 1.02
AGATGTACGT | 1.01
AGATGTATCG | 0.98
AGATGTCTCG | 0.976
AGATGTGTAT | 0.97
AGATTAAATC | 0.996
AGATTAGAGA | 1.02
AGATTAGAGC | 1.03
AGATTCGGCT | 0.991
AGATTGAACC | 1.05
AGATTGTAGC | 1.02
AGATTTGTAC | 1.06
AGCAAAGCAA | 1.23
AGCAAAGCTC | 1.05
AGCAAAGTAG | 1.02
AGCAAAGTCG | 0.946
AGCAAATTTT | 1.02
AGCAACTGCA | 1.02
AGCAAGGCCG | 0.944
AGCAATGCGC | 1.97

Sequence | switch fluorescence ratio
AGCAATTACC | 4.79
AGCACAAAGA | 1.03
AGCACAGCGG | 1.06
AGCACATCGA | 1.15
AGCACCGATT | 1.01
AGCACCGGGG | 0.998
AGCACGACCT | 1.49
AGCACTTCGG | 1.01
AGCAGAATGG | 0.958
AGCAGAGTAT | 0.962
AGCAGATCCG | 1.05
AGCAGCACTT | 1.09
AGCAGCATGC | 1.04
AGCAGCCTCT | 1.04
AGCAGGGA | 1.11
AGCAGGGAGT | 1.01
AGCAGGGGGC | 0.993
AGCAGGTCGC | 0.989
AGCAGTTGC | 1.02
AGCATACGTG | 1.09
AGCATCTATT | 0.999
AGCATTAGTG | 1
AGCATTCGGA | 1.05
AGCATTTGGA | 1.02
AGCCAAACAG | 0.945

Sequence | switch fluorescence ratio
AGCCAACGAC | 1.36
AGCCACTGGC | 1.12
AGCCAGCCCT | 1.02
AGCCAGTTTG | 0.964
AGCCATTTTA | 0.974
AGCCCCAGTC | 1.09
AGCCCGACAT | 0.987
AGCCCTACAT | 1.09
AGCCCTGTGG | 1.02
AGCCGCAGCT | 1.09
AGCCGCGCCC | 1.16
AGCCGCGGCA | 0.981
AGCCGCTTAG | 1.23
AGCCGGCCAG | 1.07
AGCCGGGCTA | 1
AGCCGTAGCT | 1.15
AGCCGTGAGG | 0.993
AGCCTAGCCC | 0.996
AGCCTGATTG | 0.968
AGCCTGGCTG | 0.973
AGCCTGTAT | 0.969
AGCCTGTTCA | 0.983
AGCGAAACGG | 1.08
AGCGAACTCG | 1.06
AGCGAAGTAA | 1.11

Sequence | switch fluorescence ratio
AGCGAGAAAT | 1.01
AGCGAGGGTA | 1.03
AGCGATACTA | 4.15
AGCGCATTCC | 1.45
AGCGCCCGCC | 1.02
AGCGCGCGTT | 0.994
AGCGCTGAG | 1.02
AGCGGACCCC | 1.1
AGCGGGATTA | 0.942
AGCGGGCCAC | 0.992
AGCGGGGACC | 1.02
AGCGGGTCCT | 0.998
AGCGGTGTGG | 1
AGCGTCAAAG | 1.02
AGCGTCGCTT | 0.975
AGCGTCTTC | 0.984
AGCGTGGGGT | 1.03
AGCTAAACCG | 1.04
AGCTAACAAA | 0.992
AGCTACAAAC | 1.14
AGCTACGAGC | 1.12
AGCTACTTAG | 1.07
AGCTAGATAA | 0.96
AGCTAGCGAG | 1.03
AGCTAGTAAG | 0.974
